# The source gives many values for each of these; only a part stands here.
# Experiments:
# Rat [1] = assay: concentration in plasma after dosing; conditions: 2 min; dosed: 2-Methyltetrahydrofuran; 10 mg/kg; iv; Male; F344
# Rat [2] = assay: concentration in brain after dosing; conditions: 2 min; dosed: 2-Methyltetrahydrofuran; 10 mg/kg; iv; Female; F344
# Rat [3] = assay: concentration in plasma after dosing; conditions: 0.75 h; dosed: 2-Methyltetrahydrofuran; 10 mg/kg; oral; Female; F344
# Rat [4] = assay: concentration in brain after dosing; conditions: 20 min; dosed: 2-Methyltetrahydrofuran; 10 mg/kg; iv; Female; F344
# Rat [5] = assay: concentration in plasma after dosing; conditions: dosed: 2-Methyltetrahydrofuran
smiles,measurement,setting,value
CC1CCCO1 (configuration not stated) [2-Methyltetrahydrofuran],concentration in plasma,Rat [1],21900 ng/mL
same,concentration in brain,Rat [2],7.86 µg/g
same,concentration in plasma,Rat [3],1430 ng/mL
same,concentration in brain,Rat [4],3.88 µg/g
same,concentration in plasma,"Rat [5]; 2 min, 10 mg/kg, iv, Female, F344",16000 ng/mL
same,concentration in plasma,"Rat [5]; 2 min, 10 mg/kg, iv, Male, F344",15700 ng/mL
same,concentration in plasma,"Rat [5]; 2 min, 10 mg/kg, oral, Female, F344",1170 ng/mL
same,concentration in plasma,"Rat [5]; 2 min, 10 mg/kg, oral, Male, F344",118 ng/mL
same,concentration in plasma,"Rat [5]; 2 min, 30 mg/kg, oral, Female, F344",5800 ng/mL
same,concentration in plasma,"Rat [5]; 2 min, 30 mg/kg, oral, Male, F344",453 ng/mL
same,concentration in plasma,"Rat [5]; 4 min, 10 mg/kg, oral, Female, F344",4140 ng/mL
same,concentration in plasma,"Rat [5]; 4 min, 10 mg/kg, oral, Male, F344",1470 ng/mL
same,concentration in plasma,"Rat [5]; 4 min, 30 mg/kg, oral, Female, F344",8770 ng/mL
same,concentration in plasma,"Rat [5]; 4 min, 30 mg/kg, oral, Male, F344",5220 ng/mL
same,concentration in plasma,"Rat [5]; 5 min, 10 mg/kg, iv, Female, F344",11000 ng/mL
same,concentration in plasma,"Rat [5]; 5 min, 10 mg/kg, iv, Male, F344",13800 ng/mL
same,concentration in plasma,"Rat [5]; 5 min, 100 mg/kg, oral, Female, F344",44000 ng/mL
same,concentration in plasma,"Rat [5]; 5 min, 100 mg/kg, oral, Female, Harlan Sprague Dawley",23000 ng/mL
same,concentration in plasma,"Rat [5]; 5 min, 100 mg/kg, oral, Male, F344",66200 ng/mL
same,concentration in plasma,"Rat [5]; 5 min, 100 mg/kg, oral, Male, Harlan Sprague Dawley",34700 ng/mL
same,concentration in plasma,"Rat [5]; 5 min, 400 mg/kg, oral, Female, F344",268000 ng/mL
same,concentration in plasma,"Rat [5]; 5 min, 400 mg/kg, oral, Female, Harlan Sprague Dawley",245000 ng/mL
same,concentration in plasma,"Rat [5]; 5 min, 400 mg/kg, oral, Male, F344",259000 ng/mL
same,concentration in plasma,"Rat [5]; 8 min, 10 mg/kg, oral, Female, F344",2950 ng/mL
same,concentration in plasma,"Rat [5]; 8 min, 10 mg/kg, oral, Male, F344",5590 ng/mL
same,concentration in plasma,"Rat [5]; 8 min, 30 mg/kg, oral, Female, F344",13200 ng/mL
same,concentration in plasma,"Rat [5]; 8 min, 30 mg/kg, oral, Male, F344",17600 ng/mL
same,concentration in plasma,"Rat [5]; 10 min, 10 mg/kg, iv, Female, F344",9270 ng/mL
same,concentration in plasma,"Rat [5]; 10 min, 10 mg/kg, iv, Male, F344",12100 ng/mL
same,concentration in plasma,"Rat [5]; 10 min, 10 mg/kg, oral, Female, F344",4150 ng/mL
same,concentration in plasma,"Rat [5]; 10 min, 10 mg/kg, oral, Male, F344",4140 ng/mL
same,concentration in plasma,"Rat [5]; 10 min, 30 mg/kg, oral, Female, F344",11900 ng/mL
same,concentration in plasma,"Rat [5]; 10 min, 30 mg/kg, oral, Male, F344",14000 ng/mL
same,concentration in plasma,"Rat [5]; 10 min, 100 mg/kg, oral, Female, Harlan Sprague Dawley",26200 ng/mL
same,concentration in plasma,"Rat [5]; 10 min, 100 mg/kg, oral, Male, Harlan Sprague Dawley",44100 ng/mL
same,concentration in plasma,"Rat [5]; 10 min, 400 mg/kg, oral, Female, F344",140000 ng/mL
same,concentration in plasma,"Rat [5]; 10 min, 400 mg/kg, oral, Female, Harlan Sprague Dawley",208000 ng/mL
same,concentration in plasma,"Rat [5]; 10 min, 400 mg/kg, oral, Male, F344",235000 ng/mL
same,concentration in plasma,"Rat [5]; 0.25 h, 10 mg/kg, iv, Female, F344",6630 ng/mL
same,concentration in plasma,"Rat [5]; 0.25 h, 10 mg/kg, iv, Male, F344",7420 ng/mL
same,concentration in plasma,"Rat [5]; 0.25 h, 10 mg/kg, oral, Female, F344",3480 ng/mL
same,concentration in plasma,"Rat [5]; 0.25 h, 10 mg/kg, oral, Male, F344",6010 ng/mL
same,concentration in plasma,"Rat [5]; 0.25 h, 30 mg/kg, oral, Female, F344",16500 ng/mL
same,concentration in plasma,"Rat [5]; 0.25 h, 30 mg/kg, oral, Male, F344",18800 ng/mL
same,concentration in plasma,"Rat [5]; 20 min, 10 mg/kg, iv, Female, F344",5160 ng/mL
same,concentration in plasma,"Rat [5]; 20 min, 10 mg/kg, iv, Male, F344",6730 ng/mL
same,concentration in plasma,"Rat [5]; 20 min, 10 mg/kg, oral, Female, F344",3320 ng/mL
same,concentration in plasma,"Rat [5]; 20 min, 10 mg/kg, oral, Male, F344",6200 ng/mL
same,concentration in plasma,"Rat [5]; 20 min, 30 mg/kg, oral, Female, F344",21100 ng/mL
same,concentration in plasma,"Rat [5]; 20 min, 30 mg/kg, oral, Male, F344",15900 ng/mL
same,concentration in plasma,"Rat [5]; 20 min, 100 mg/kg, oral, Female, Harlan Sprague Dawley",45600 ng/mL
same,concentration in plasma,"Rat [5]; 20 min, 100 mg/kg, oral, Male, Harlan Sprague Dawley",51100 ng/mL
same,concentration in plasma,"Rat [5]; 20 min, 400 mg/kg, oral, Female, F344",164000 ng/mL
same,concentration in plasma,"Rat [5]; 20 min, 400 mg/kg, oral, Female, Harlan Sprague Dawley",166000 ng/mL
same,concentration in plasma,"Rat [5]; 20 min, 400 mg/kg, oral, Male, F344",157000 ng/mL
same,concentration in plasma,"Rat [5]; 0.5 h, 10 mg/kg, iv, Female, F344",3700 ng/mL
same,concentration in plasma,"Rat [5]; 0.5 h, 10 mg/kg, iv, Male, F344",5180 ng/mL
same,concentration in plasma,"Rat [5]; 0.5 h, 10 mg/kg, oral, Female, F344",2080 ng/mL
same,concentration in plasma,"Rat [5]; 0.5 h, 10 mg/kg, oral, Male, F344",4200 ng/mL
same,concentration in plasma,"Rat [5]; 0.5 h, 30 mg/kg, oral, Female, F344",17500 ng/mL
same,concentration in plasma,"Rat [5]; 0.5 h, 30 mg/kg, oral, Male, F344",14700 ng/mL
same,concentration in plasma,"Rat [5]; 0.75 h, 10 mg/kg, oral, Female, F344",2840 ng/mL
